Results: the supplement of paper PMC4967469
IC50 is the fitted dose that halves viability relative to control wells, and lower means more sensitive; where the fit passes the top or lowest dose, that dose stands as a limit. The AUC spans the tested range (256-fold, ending at the top dose) of the same fit; the more sensitive the line, the further below 1. For part of these data: A top dose marked as inferred is not printed in the source and was worked back from the curve model.

Key:
Assay in all cases: Viability of human cancer cell lines after 72 h of drug (GDSC screen)
CP724714 = compound: COCC(=O)NC/C=C/c1ccc2ncnc(Nc3ccc(Oc4ccc(C)nc4)c(C)c3)c2c1 [CP724714]; settings: top dose 10.24 µM; top dose inferred
Procedure: (§1)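 Human cancer cell lines in 384-well plates, medium with 10% serum, drug for 72 h over a 256-fold dose range (nine 2-fold or five 4-fold steps up to the top dose). Adherent lines were fixed and stained with the nucleic acid dye Syto60, suspension lines read with resazurin; signal relative to control wells, capped at 0 and 100%. One two-parameter sigmoid per drug and line, fitted in a mixed model over all curves with the slope shared within a line.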

CX-5461 = compound: Cc1cnc(CNC(=O)c2c(=O)c3ccc(N4CCCN(C)CC4)nc3n3c2sc2ccccc23)cn1 [CX-5461]; settings: top dose 10.24 µM; top dose inferred
Procedure: as §1

Obatoclax mesylate = compound: COC1=CC(c2cc3ccccc3[nH]2)=N/C1=C\c1[nH]c(C)cc1C [Obatoclax mesylate]; settings: top dose 16 µM
Procedure: as §1

STF-62247 = compound: Cc1cccc(Nc2nc(-c3ccncc3)cs2)c1 [STF-62247]; settings: top dose 10.24 µM; top dose inferred
Procedure: as §1

Cell Line	AUC (CP724714)	IC50 (CP724714)	AUC (CX-5461)	IC50 (CX-5461)	AUC (Obatoclax mesylate)	IC50 (Obatoclax mesylate)	AUC (STF-62247)	IC50 (STF-62247)
KYSE-520 (oesophagus, adherent)	0.967	> 10.2 µM	0.982	> 10.2 µM	0.392	0.457 µM	0.965	> 10.2 µM
LC-1-sq (lung squamous cell carcinoma, adherent)	0.968	> 10.2 µM	0.969	> 10.2 µM	0.672	3.29 µM	0.983	> 10.2 µM
LCLC-97TM1 (large cell lung carcinoma, adherent)	0.911	> 10.2 µM	0.675	2.07 µM	0.122	< 0.0625 µM	0.944	> 10.2 µM
LCLC-103H (large cell lung carcinoma, adherent)	0.99	> 10.2 µM	0.985	> 10.2 µM	0.071	< 0.0625 µM	0.966	> 10.2 µM
LK-2 (lung squamous cell carcinoma, adherent)	0.949	> 10.2 µM	0.944	> 10.2 µM	0.131	0.0747 µM	0.963	> 10.2 µM
LN-18 (glioma, adherent)	0.991	> 10.2 µM	0.994	> 10.2 µM	0.217	0.185 µM	0.994	> 10.2 µM
LN-229 (glioma, adherent)	0.974	> 10.2 µM	0.986	> 10.2 µM	0.456	0.761 µM	0.985	> 10.2 µM
LN-405 (glioma, adherent)	0.984	> 10.2 µM	0.984	> 10.2 µM	0.488	0.923 µM	0.983	> 10.2 µM
LNZTA3WT4 (glioma, adherent)	0.969	> 10.2 µM	0.935	> 10.2 µM	0.458	0.771 µM	0.98	> 10.2 µM
LOU-NH91 (lung squamous cell carcinoma, adherent)	0.985	> 10.2 µM	0.986	> 10.2 µM	0.628	2.33 µM	0.982	> 10.2 µM
LS-180 (large intestine, adherent)	0.966	> 10.2 µM	0.909	> 10.2 µM	0.373	0.423 µM	0.985	> 10.2 µM
LS-411N (large intestine, adherent)	0.979	> 10.2 µM	0.779	5.15 µM	0.265	0.181 µM	0.953	> 10.2 µM
LU-99A (large cell lung carcinoma, adherent)	0.982	> 10.2 µM	0.931	> 10.2 µM	0.42	0.606 µM	0.985	> 10.2 µM
LU-135 (small cell lung carcinoma, suspension)	0.992	> 10.2 µM	0.835	5.19 µM	0.182	0.14 µM	0.991	> 10.2 µM
LoVo (large intestine, adherent)	0.987	> 10.2 µM	0.987	> 10.2 µM	0.202	0.13 µM	0.965	> 10.2 µM
M14 (melanoma, adherent)	0.987	> 10.2 µM	0.987	> 10.2 µM	0.423	0.607 µM	0.974	> 10.2 µM

Cell Line	AUC (CP724714)	IC50 (CP724714)	AUC (CX-5461)	IC50 (CX-5461)	AUC (Obatoclax mesylate)	IC50 (Obatoclax mesylate)	AUC (STF-62247)	IC50 (STF-62247)
M059J (glioma, adherent)	0.983	> 10.2 µM	0.872	> 10.2 µM	0.546	1.35 µM	0.976	> 10.2 µM
MC-IXC (neuroblastoma, adherent)	0.996	> 10.2 µM	0.752	2.65 µM	0.177	0.158 µM	0.991	> 10.2 µM
MCF7 (breast, adherent)	0.98	> 10.2 µM	0.986	> 10.2 µM	0.034	< 0.0625 µM	0.986	> 10.2 µM
MDA-MB-157 (breast, adherent)	0.988	> 10.2 µM	0.988	> 10.2 µM	0.48	0.881 µM	0.987	> 10.2 µM
MDA-MB-175-VII (breast, adherent)	0.589	1.15 µM	0.988	> 10.2 µM	0.607	2.03 µM	0.981	> 10.2 µM
MDA-MB-231 (breast, adherent)	0.971	> 10.2 µM	0.978	> 10.2 µM	0.479	0.875 µM	0.975	> 10.2 µM
MDA-MB-330 (breast, adherent)	0.963	> 10.2 µM	0.985	> 10.2 µM	0.601	1.97 µM	0.986	> 10.2 µM
MDA-MB-361 (breast, adherent)	0.946	> 10.2 µM	0.989	> 10.2 µM	0.457	0.765 µM	0.988	> 10.2 µM
MDA-MB-415 (breast, adherent)	0.981	> 10.2 µM	0.983	> 10.2 µM	0.624	2.48 µM	0.982	> 10.2 µM
MDA-MB-436 (breast, adherent)	0.977	> 10.2 µM	0.903	> 10.2 µM	0.508	1.06 µM	0.983	> 10.2 µM
MDA-MB-453 (breast, adherent)	0.807	5.96 µM	0.881	> 10.2 µM	0.571	1.59 µM	0.972	> 10.2 µM
MDA-MB-468 (breast, adherent)	0.956	> 10.2 µM	0.906	> 10.2 µM	0.49	0.937 µM	0.968	> 10.2 µM
ME-180 (cervix, adherent)	0.929	> 10.2 µM	0.905	> 10.2 µM	0.557		0.986	> 10.2 µM
MEL-JUSO (melanoma, adherent)	0.971	> 10.2 µM	0.746	3.58 µM	0.095	< 0.0625 µM	0.973	> 10.2 µM
MES-SA (uterus, adherent)	0.987	> 10.2 µM	0.991	> 10.2 µM	0.341	0.391 µM	0.992	> 10.2 µM
MFE-280 (endometrium, adherent)	0.922	> 10.2 µM	0.92	> 10.2 µM	0.507	1.05 µM	0.957	> 10.2 µM
